{"source": "PubChem BioAssay AID2147", "about": "(National Center for Advancing Translational Sciences (NCATS), 2009)", "note": "Values joined by “and” are separate entries in the source; they are usually repeats but may differ in a detail not shown here. Equal values may be shown once. Among all 230,000 compounds or so, about 3,600 (1.6%) were called active. Inconclusive results, whose numbers are uncertain, are shown with a selection of clear calls. Calls come from the whole dose curve; as a rule, active = well fitted inhibition curve with a large enough effect (not every such curve was filed as active); inconclusive = small, poorly fitted or top-dose-only effect, or another doubt; inactive = no such curve, though single readings can be large or run the other way. Potencies beside an inconclusive call are fits to weak or partial responses and may not hold up. Note: nearly all actives have a fitted effect of over 50% in size. Potency is the fitted concentration of half-maximal effect; tags give direction and shape of the fitted curve."}
{"target": "Lysine-specific demethylase 4E (Homo sapiens) (UniProt B2RXH2)", "sequence (B2RXH2 whole entry, looked up, the tested form may be a part)": "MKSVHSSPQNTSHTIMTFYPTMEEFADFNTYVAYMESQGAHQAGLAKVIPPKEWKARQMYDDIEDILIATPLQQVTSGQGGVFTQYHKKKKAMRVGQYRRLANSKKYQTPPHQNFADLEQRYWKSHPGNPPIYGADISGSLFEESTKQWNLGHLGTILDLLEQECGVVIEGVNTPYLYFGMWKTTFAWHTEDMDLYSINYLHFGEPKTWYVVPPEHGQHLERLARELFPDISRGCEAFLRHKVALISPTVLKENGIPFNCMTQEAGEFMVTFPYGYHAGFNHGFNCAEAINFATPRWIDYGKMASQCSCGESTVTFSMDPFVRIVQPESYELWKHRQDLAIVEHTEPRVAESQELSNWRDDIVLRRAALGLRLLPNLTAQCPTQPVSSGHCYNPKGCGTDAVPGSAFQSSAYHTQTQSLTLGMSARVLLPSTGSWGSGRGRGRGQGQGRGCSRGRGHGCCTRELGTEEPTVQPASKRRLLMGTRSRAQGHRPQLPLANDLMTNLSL", "assay": "qHTS Assay for Inhibitors of Human Jumonji Domain Containing 2E (JMJD2E)", "conditions": "JMJD2E catalytic domain, FDH-coupled NADH fluorescence (FDH is formaldehyde dehydrogenase); series mostly up to 57.1 µM"}
{"smiles": "CN1CCN(c2cn[nH]c(=O)c2Cl)CC1", "Potency": "inactive"}
{"smiles": "CN(C)[C@H]1C(=O)C(C(N)=O)=C(O)[C@]2(O)C(=O)C3=C(O)c4c(O)cccc4[C@@](C)(O)[C@H]3C[C@@H]12", "Potency": "active: 11.2 µM"}
{"smiles": "Cc1nc2ccc(N3CCN(C)CC3)cc2nc1C", "Potency": "inconclusive: 39.8 µM [inhibitor, single point]"}
{"smiles": "CCn1ncc(-c2ccnc3cc(C(=O)O)nn23)c1C", "Potency": "inconclusive: 28.2 µM [inhibitor, partial curve]"}
{"smiles": "COc1cc(C(=S)N2CCOCC2)cc(OC)c1OC(=O)Cc1ccccc1", "Potency": "inactive"}
{"smiles": "COc1ccc(N=Cc2c(O)n(Cc3ccccc3)c(=S)[nH]c2=O)c(OC)c1", "Potency": "inconclusive: 28.2 µM [inhibitor, single point]"}
{"smiles": "c1ccc2cc(C3N4CCCN34)ccc2c1", "note": "(configuration not stated)", "Potency": "inconclusive: 35.5 µM [inhibitor, single point]"}
{"smiles": "CCCCn1c(N)c(C(=O)OCC2CCCO2)c2nc3ccccc3nc21", "note": "(configuration not stated)", "Potency": "inconclusive: 31.6 µM [inhibitor, partial curve]"}
{"smiles": "COc1cc2c(cc1OC)C(C)N(C(=O)c1nccnc1C(=O)O)CC2", "note": "(configuration not stated)", "Potency": "inconclusive: 39.8 µM [inhibitor, single point]"}
{"smiles": "CO[C@H]1C=C2CCN(C)[C@@H]2[C@@H]2c3cc4c(cc3C(=O)O[C@H]21)OCO4", "Potency": "inconclusive: 12.6 µM [inhibitor, partial curve]"}
{"smiles": "O=S1OCC2C(CO1)C1(Cl)C(Cl)=C(Cl)C2(Cl)C1(Cl)Cl", "note": "(configuration not stated)", "Potency": "inactive"}
{"smiles": "C=C1C/C(=C/C)C(=O)O[C@@H]2CCN3CC=C(COC(=O)[C@]1(C)O)[C@H]23", "Potency": "inconclusive: 25.1 µM [inhibitor, single point]"}
{"smiles": "O=C(N/N=C/c1c(O)n(-c2ccccc2)c(=S)[nH]c1=O)c1ccccc1", "Potency": "active: 28.2 µM"}
{"smiles": "O=C1CC(N2CC=C(c3ccc(F)cc3)CC2)C(=O)N1c1ccc(F)cc1", "note": "(configuration not stated)", "Potency": "inconclusive: 28.2 µM [inhibitor, single point]"}
{"smiles": "CC(=O)c1ccc2c(c1)C1C(Cl)C(Sc3ccccc3[N+](=O)[O-])CC1C(C(=O)O)N2", "note": "(configuration not stated)", "Potency": "inconclusive: 39.8 µM [inhibitor, single point]"}
{"smiles": "CCOc1cccc(OCC)c2c(C)[n+](CC3CCCO3)c(C)c1-2", "note": "(configuration not stated)", "Potency": "inconclusive: 20 µM [inhibitor, partial curve]"}
{"smiles": "CCCCCC[C@H]1C(=O)O[C@H](C)[C@H](NC(=O)c2cccc(NC=O)c2O)C(=O)O[C@@H](C)[C@@H]1OC(=O)CC(C)C", "Potency": "inconclusive: 12.6 µM [inhibitor, full curve]"}
{"smiles": "COc1ccc(N=Cc2c(O)n(Cc3cccs3)c(=O)[nH]c2=O)cc1", "Potency": "inconclusive: 10 µM [inhibitor, partial curve]"}
{"smiles": "CN1CCC2(CC1)C(C#N)=C(N)NC(S)=C2C#N", "Potency": "inconclusive: 39.8 µM [inhibitor, single point]"}
{"smiles": "CC12CC[C@H]3[C@@H](CCC4(O)C[C@H](O)CCC34/C=N/NC(=O)c3ccccc3O)C1(O)CCC2C1=CC(=O)OC1", "note": "(some centres not stated)", "Potency": "inconclusive: 35.5 µM [inhibitor, single point]"}
{"smiles": "CCCN(CCC)[C@H]1CCc2c(F)ccc(O)c2C1", "Potency": "inactive"}
{"smiles": "Fc1ccc(N2CCN(Cc3ccc4c(c3)OCO4)CC2)cc1", "Potency": "inconclusive: 35.5 µM [inhibitor, single point]"}
{"smiles": "CCCCn1c(O)c(C(CC)=Nc2ccc(C(=O)O)cc2)c(=O)[nH]c1=O", "Potency": "inconclusive: 28.2 µM [inhibitor, single point]"}
{"smiles": "CCOC(=O)CC1=C(C(=O)OCC)C2(C(=O)N1CC(=O)OC)C(C#N)=C(N)Oc1ccccc12", "note": "(configuration not stated)", "Potency": "inactive"}
{"smiles": "COCc1cc(OC(=O)N(C)C)nc2c1c(C)nn2C", "Potency": "inconclusive: 20 µM [inhibitor, partial curve]"}
{"smiles": "Cc1cc(C)nc(/N=C/c2c(O)n(C)c(=O)n(C)c2=O)n1", "Potency": "inconclusive: 39.8 µM [inhibitor, single point]"}
{"smiles": "C=CCn1c(O)c(C=NCCN2CCNCC2)c(=O)[nH]c1=O", "Potency": "inactive"}
{"smiles": "CCN1C[C@]2(C)CC[C@H](OC)[C@]34C5C[C@@H]6CC[C@@](O)(C5C(=O)O6)C(C13)[C@@H](OC(=O)c1ccccc1)C24", "Potency": "inactive"}
{"smiles": "CC(C)[C@@]1(NC(=O)[C@@H]2C=C3c4cccc5[nH]cc(c45)C[C@H]3N(C)C2)O[C@@]2(O)[C@@H]3CCCN3C(=O)[C@H](Cc3ccccc3)N2C1=O", "Potency": "inconclusive: 25.1 µM [inhibitor, partial curve]"}
{"smiles": "COC(=O)[C@H]1C[C@H]2CC[C@H](O)C[C@H]2N1CC1CC1", "Potency": "inactive"}
{"smiles": "CCCN(CC#CCOc1ccc(OC)cc1)CCC", "Potency": "inconclusive: 39.8 µM [inhibitor, single point]"}
{"smiles": "Nc1ccccc1C(=O)OCC(=O)Nc1ccc(Br)cc1F", "Potency": "inconclusive: 28.2 µM [inhibitor, partial curve]"}
{"smiles": "CC(=O)N1CC[N+](C)(C)CC1", "Potency": "active: 11.2 µM"}
{"smiles": "CCCNC(=O)c1c(N)n(Cc2ccco2)c2nc3ccccc3nc12", "Potency": "inconclusive: 31.6 µM [inhibitor, partial curve]"}
{"smiles": "O=C1C2CCCN2C(c2ccncc2)N1c1ccc(Cl)c(Cl)c1", "note": "(configuration not stated)", "Potency": "inconclusive: 31.6 µM [inhibitor, single point]"}
{"smiles": "O=C(O)Cn1cc(C(=O)c2ccccc2)c2ccccc21", "Potency": "inactive"}
{"smiles": "O=C1NC(=S)N(c2ccc(Cl)cc2)C(=O)/C1=C/N1CCN(C(=O)c2ccco2)CC1", "Potency": "inconclusive: 39.8 µM [inhibitor, single point]"}
{"smiles": "COc1ccccc1N1C(=O)NC(=O)/C(=C/c2ccc([N+](=O)[O-])s2)C1=O", "Potency": "inconclusive: 35.5 µM [inhibitor, single point]"}
{"smiles": "CC[C@@H](CO)NC(=O)[C@@H]1C=C2c3cccc4c3c(cn4C)C[C@H]2N(C)C1", "Potency": "inconclusive: 25.1 µM [inhibitor, partial curve] and inconclusive: 14.1 µM [inhibitor, partial curve]"}
{"smiles": "CCC1(CCCC(=O)c2ccc(F)cc2)C(=O)NC(=S)NC1=O", "Potency": "inactive"}
{"smiles": "CCn1cc(C(=O)O)c(=O)c2cc(F)c(N3CCNCC3)cc21", "Potency": "active: 15.8 µM"}
{"smiles": "O=C1NC(=O)C2(Cc3ccccc3N3CCOCC32)C(=O)N1c1ccccc1", "note": "(configuration not stated)", "Potency": "inconclusive: 35.5 µM [inhibitor, single point]"}
